# PMC4336329 (PLoS ONE, 2015)
# Screen size: about 310,000 compounds; about 14,000 (4.5%) showed an effect of 50% or more. The effect is printed as a negative number. The list shows a part of the results.
# Target: human ether-à-go-go-related gene (hERG) potassium channel (human, UniProt Q12809)
# Assay: primary screen, population patch clamp on CHO cells stably expressing hERG
# 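Note: peak tail current of the secondary pulse compared with the same well before compound.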
# human ether-à-go-go-related gene (hERG) potassium channel, sequence (Q12809 whole entry, looked up): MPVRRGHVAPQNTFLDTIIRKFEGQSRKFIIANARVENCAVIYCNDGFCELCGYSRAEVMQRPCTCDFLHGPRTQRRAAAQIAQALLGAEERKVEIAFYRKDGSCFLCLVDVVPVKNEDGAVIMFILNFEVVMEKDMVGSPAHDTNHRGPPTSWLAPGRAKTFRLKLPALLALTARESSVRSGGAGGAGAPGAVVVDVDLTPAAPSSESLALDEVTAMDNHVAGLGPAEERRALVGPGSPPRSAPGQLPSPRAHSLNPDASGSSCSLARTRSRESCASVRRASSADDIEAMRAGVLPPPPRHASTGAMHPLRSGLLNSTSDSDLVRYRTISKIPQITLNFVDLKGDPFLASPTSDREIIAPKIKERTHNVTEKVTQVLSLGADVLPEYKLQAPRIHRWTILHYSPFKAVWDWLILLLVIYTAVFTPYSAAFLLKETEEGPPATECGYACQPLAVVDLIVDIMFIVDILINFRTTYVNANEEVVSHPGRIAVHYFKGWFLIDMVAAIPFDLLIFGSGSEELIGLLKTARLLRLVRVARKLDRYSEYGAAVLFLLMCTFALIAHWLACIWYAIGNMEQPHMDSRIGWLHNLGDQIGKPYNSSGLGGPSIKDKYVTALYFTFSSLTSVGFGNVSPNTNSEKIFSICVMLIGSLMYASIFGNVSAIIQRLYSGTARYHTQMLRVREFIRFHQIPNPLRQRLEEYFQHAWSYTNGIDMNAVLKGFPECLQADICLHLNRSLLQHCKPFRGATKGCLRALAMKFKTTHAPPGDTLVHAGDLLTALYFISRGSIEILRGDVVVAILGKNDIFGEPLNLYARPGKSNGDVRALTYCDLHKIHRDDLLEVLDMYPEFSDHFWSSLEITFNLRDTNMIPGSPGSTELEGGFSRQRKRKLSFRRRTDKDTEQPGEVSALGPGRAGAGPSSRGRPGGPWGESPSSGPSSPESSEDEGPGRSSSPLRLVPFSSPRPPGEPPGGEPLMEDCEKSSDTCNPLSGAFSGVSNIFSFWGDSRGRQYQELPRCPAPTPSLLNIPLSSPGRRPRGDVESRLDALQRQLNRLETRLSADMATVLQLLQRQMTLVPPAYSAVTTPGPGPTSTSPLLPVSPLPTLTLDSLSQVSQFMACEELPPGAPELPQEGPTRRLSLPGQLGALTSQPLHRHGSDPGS
row,Structure (SMILES),"hERG current change (%, negative = inhibition) at 10uM [%]"
1,COCCn1c(SCC(=O)c2ccc(F)cc2)nnc1C(C)C,-1.86
2,COc1ccc(C(C)NC(=O)C2CCCC2)cc1OC (centres unmarked),19.9
3,CC(=O)c1cccc(NC(=O)CSc2n[nH]c(-c3ccncc3)n2)c1,10.5
4,O=C(Cn1c(=O)sc2ccccc21)Nc1ccc2c(c1)OCCO2,6.78
5,CSc1ccc(C(=S)N2CCCCCC2)cc1,7.33
6,Nc1nc(SCc2nc3sc4c(c3c(=O)[nH]2)CCCC4)n[nH]1,8.47
7,Nc1ccc(S(=O)(=O)Nc2ccc(S(N)(=O)=O)cc2)cc1,2.96
8,CC1CCCC/C1=N\Nc1ccc(S(N)(=O)=O)cc1[N+](=O)[O-] (centres unmarked),11.4
9,Cc1cc(C(=O)N/N=C/c2ccc(N3CCOCC3)cc2)c(C)o1,20.3
10,Cc1cccc(CS(=O)(=O)Cc2ccc(C(=O)NCc3ccco3)o2)c1,-7.41
11,O=C(Cn1cc(C(F)(F)F)ccc1=O)N/N=C/c1ccccc1O,-7.65
12,CC(=NCCCN1CCCCC1)c1c(O)n(Cc2ccccc2)c(=O)[nH]c1=O,-48.4
13,O=c1c2ccc([N+](=O)[O-])c3cccc(c32)c2nc3ccccc3n12,21.1
14,CCCCn1c(=O)c(C(=O)Nc2ccccc2F)c(O)c2ccccc21,22.6
15,CCOc1ccc(S(=O)(=O)NCCC(=O)N2CCN(Cc3ccccc3)CC2)cc1,-54.2
16,COc1cccc(C(=O)OCc2ccccc2C#N)c1O,10
17,O=C(Nc1cccc(C(F)(F)F)c1)C1C2CC3OC(=O)C1C3C2 (centres unmarked),-7.31
18,O=C1OC(c2ccccc2)=C/C1=C/N1CCCCC1,-18.7
19,N#Cc1ccccc1OCC(=O)Nc1nnc(C2CC2)s1,0.922
20,COCCN(C(=O)CCC(=O)Nc1cc(C)on1)C(C(=O)NC1CCCC1)c1ccc(C)cc1 (centres unmarked),-6.8
21,CCC(C)NC(=O)CSc1nnc(-c2cc(-c3ccc(C)cc3)nc3ccccc23)n1N (centres unmarked),17.1
22,Cc1cccc(C(=O)OCC(=O)c2c(C)[nH]c3ccccc23)c1O,9.38
23,C=CCn1c(SCc2ccc(F)cc2)nc2c1c(=O)[nH]c(=O)n2C,-18

row,Structure (SMILES),"hERG current change (%, negative = inhibition) at 10uM [%]"
1,CCN1CCN(CCn2c(=S)[nH]c3cc4c(cc3c2=O)OCO4)CC1,13
2,O=C1NC(c2ccccc2O)Nc2ccccc21 (centres unmarked),15
3,CCOC(=O)C[C@H]1c2cc(C(F)(F)F)ccc2S(=O)(=O)N1C(C)C,-17.5
4,COc1ccc(S(=O)(=O)Nc2c(NC3CCCCC3)c3ccccc3oc2=O)cc1OC,-6.99
5,O=C(CSc1ccc2nnc(CCNC(=O)c3ccc(F)cc3)n2n1)NCC1CCCO1 (centres unmarked),12
6,CCOC(=O)c1sc(N)nc1-c1ccccc1,-6.84
7,O=S(=O)(Nc1cccc2c1ccc1cccn12)c1cccs1,-8.8
8,O=C(COC(=O)c1ccc(O)cc1)NC1CCCCCC1,7.22
9,CC(=O)Nc1ccc(S(=O)(=O)NNC(=O)COc2ccc(Cl)cc2Cl)cc1,16.3
10,CCOCCN1CCC(OC(C)=O)C(C)C1.Cl (centres unmarked),16.2
11,Cc1ccc2nc(SCC(=O)Nc3ccc(Cl)cc3)nc(=O)n2c1,-15.4
12,CSc1ccc(C2CC(=O)Nc3c2c(=O)n(C)c(=O)n3C)cc1 (centres unmarked),9.46
13,Cc1c(C(=O)N2CCN(S(C)(=O)=O)CC2)oc2ccccc12,3.49
14,COc1ccc(/C=N/NC(=O)COc2ccc3ccccc3c2)c(C(=O)O)c1OC,-0.793
15,O=C(O)CCN1C(=O)/C(=C\c2cccc(Oc3ccccc3)c2)SC1=S,26.2
16,O=C1NC2(CCCCCC2)C(=O)N1Cc1ccc([N+](=O)[O-])cc1,-17.5
17,CC(C)(C)NC(=O)CN(C(=O)CCC(=O)Nc1nccs1)c1ccc2c(c1)OCCO2,14.7
18,COc1ccc(-n2c(NC(=O)c3ccco3)c(C#N)c3nc4ccccc4nc32)cc1,5.18
19,Cc1ccc(/C=N/NC(=O)CN(Cc2ccccc2)S(=O)(=O)c2ccc3c(c2)OCCO3)cc1,15.9
20,CCNC(=O)c1ccccc1CCc1ccccc1,13.6
21,CC(=O)c1ccc(NC(=O)c2ccc3c(c2)C(=O)N(c2ccccn2)C3=O)cc1,15.2
22,c1ccc(N/N=C(\Cc2ncc[nH]2)c2ccccc2)cc1,-2.34
23,NS(=O)(=O)c1cccc(NC(=O)COc2ncnc3c2cnn3-c2ccccc2)c1,6.09

row,Structure (SMILES),"hERG current change (%, negative = inhibition) at 10uM [%]"
1,CCCCC(NC(C)=O)c1nc2ccccc2n1CCC (centres unmarked),-11.8
2,Cc1ccc(S(=O)(=O)n2nc(OC(=O)C(C)(C)C)cc2N)cc1,2.38
3,O=C(NCCCN1CCCC1=O)c1cc2c(s1)CCCCC2,-4.09
4,COc1ccc(N2CC(C)Cn3c2nc2c3c(=O)n(CCN3CCOCC3)c(=O)n2C)cc1 (centres unmarked),-3.02
5,CC1CCC(NC(=O)COC(=O)CNC(=O)c2ccc3ccccc3c2)CC1 (centres unmarked),6.67
6,C=CCNCC#CCOc1ccc(OC)cc1.O=C(O)C(=O)O,-11
7,COc1ccc(NC(=O)CC2C(=O)N(c3ccc(F)cc3)C(=S)N2NC(=O)c2ccc(Cl)cc2)cc1 (centres unmarked),-5.33
8,CCOc1cccc(CNn2cnnc2)c1OCc1ccccc1Cl,-17.3
9,Cc1ccc(S(=O)(=O)N2CCN(C(=O)Cc3sc(C)nc3-c3ccc(F)cc3)CC2)c(C)c1,-17.4
10,O=c1nc(Nc2ccc(Br)cc2)sc2ccc([N+](=O)[O-])cc12,18.6
11,O=C(NC(=S)NN1CCCCC1c1cccnc1)c1ccc(Br)cc1 (centres unmarked),-26.5
12,COc1ccc(N2C(=O)CC(Cc3ccc(Br)cc3)C2=O)cc1 (centres unmarked),2.75
13,CCNC(=S)N/N=C(\C)c1ccc2c(c1)OCCO2,13.4
14,CCOC(=O)c1cc2c(nc1N)CC(C)(C)OC2.Cl,11.7
15,O=C(NCc1ccccc1Cl)C1CCN(c2cnccn2)CC1,-4.12
16,COc1cc(NC(=O)c2cc3c(Cl)nc4ccccc4c3s2)cc(OC)c1OC,19.2
17,CN(C)S(=O)(=O)c1ccc(S(=O)(=O)Nc2ccc3c(c2)oc2ccccc23)cc1,3.48
18,COc1ccc(C(=O)NCc2nnc(SCC(=O)NC3CCCC3)o2)cc1,17.7
19,COc1ccc(S(=O)(=O)CCC(=O)NCCc2ccc(S(N)(=O)=O)cc2)cc1,13.8
20,CC(C)(C)Nc1nc(-c2ccccn2)nc2ccccc12,-69.8
21,CCn1c(SCC(=O)NCC2CCCO2)nnc1-c1c[nH]c2ccccc12 (centres unmarked),0.121
22,CC1(C)CC(N=Cc2c(O)n(Cc3ccc4c(c3)OCO4)c(=O)c3ccccc23)CC(C)(C)N1,2
23,COc1ccccc1OCCNC(=O)c1cc([N+](=O)[O-])cc([N+](=O)[O-])c1,12.2

row,Structure (SMILES),"hERG current change (%, negative = inhibition) at 10uM [%]"
1,CCOC(=O)c1ccc2[nH]c3c(c2c1)CCCC3O (centres unmarked),3.1
2,Cc1ccc(/C=N/n2nnnc2N)cc1,-0.446
3,CCOC(=O)C1CCCN(S(=O)(=O)CCNC(=O)c2ccc3c(c2)OCO3)C1 (centres unmarked),7.92
4,Cc1ccc2nc(NC(=O)CCCc3nc4ccccc4s3)sc2c1,-8.68
5,Cc1ccc2nc(CSc3nc(C)ccc3C#N)[nH]c2c1,7.61
6,CCN(CC)S(=O)(=O)c1ccc(OC)c(NC(=O)c2ccc(-n3cncn3)c([N+](=O)[O-])c2)c1,13.6
7,CCCc1cc(=O)[nH]c(SCC(=O)NCC2COc3ccccc3O2)n1 (centres unmarked),-13.2
8,Cc1ccc(N(CC(O)COCc2ccco2)S(=O)(=O)c2ccc(C)cc2)cc1 (centres unmarked),-11.1
9,COc1ccccc1CNC(=O)C(=O)NCCC1CCCCN1S(=O)(=O)c1ccc(C)cc1 (centres unmarked),-18.7
10,COc1ccc(NC(=S)N2CCN(C(=O)c3ccco3)CC2)cc1,-6.29
11,Cc1cccc(N2C(=O)SC(N(CC(=O)O)c3cccc(C)c3)C2=O)c1 (centres unmarked),21.2
12,COc1ccc(Cl)cc1NC(=O)NCC1CCN(C(=O)OC(C)(C)C)CC1,4.67
13,CCC(C(=O)NC1CCCCC1)n1c(SCc2ccccc2F)nc2ccncc21 (centres unmarked),-8.29
14,CN1CCN(NC(=O)Nc2ccc(Br)cc2Cl)CC1,-47.3
15,CC(=O)N1CCC(C(=O)NCCOc2ccc(C)cc2)CC1,7.67
16,COc1ccc(/C=N/NC(=O)c2cc(C)oc2C)cc1OC,-17.8
17,Cc1ccc(CNC(=O)CO/N=C/c2ccc3c(c2)OCO3)cc1,16.4
18,CC(C)C(NC(=O)OCc1ccccc1)C(=O)N1CCOCCOCCOCC1 (centres unmarked),20.1
19,O=C(Nc1ccccc1)c1nn(-c2cccc(C(F)(F)F)c2)ccc1=O,-34.5
20,O=C(c1cccs1)N1N=C(c2ccccc2)CC1c1ccccc1O (centres unmarked),23.3
